In PMC4336329 (PLoS ONE, 2015):
Out of some 310,000 compounds screened, about 14,000 (4.5%) showed an effect of 50% or more. The effect is printed as a negative number. The list shows a part of the results.

Molecular target: human ether-à-go-go-related gene (hERG) potassium channel (human, UniProt Q12809)
Test: primary screen, population patch clamp on CHO cells stably expressing hERG
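Also: peak tail current of the secondary pulse compared with the same well before compound.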

Sequence of human ether-à-go-go-related gene (hERG) potassium channel (Q12809 whole entry, looked up): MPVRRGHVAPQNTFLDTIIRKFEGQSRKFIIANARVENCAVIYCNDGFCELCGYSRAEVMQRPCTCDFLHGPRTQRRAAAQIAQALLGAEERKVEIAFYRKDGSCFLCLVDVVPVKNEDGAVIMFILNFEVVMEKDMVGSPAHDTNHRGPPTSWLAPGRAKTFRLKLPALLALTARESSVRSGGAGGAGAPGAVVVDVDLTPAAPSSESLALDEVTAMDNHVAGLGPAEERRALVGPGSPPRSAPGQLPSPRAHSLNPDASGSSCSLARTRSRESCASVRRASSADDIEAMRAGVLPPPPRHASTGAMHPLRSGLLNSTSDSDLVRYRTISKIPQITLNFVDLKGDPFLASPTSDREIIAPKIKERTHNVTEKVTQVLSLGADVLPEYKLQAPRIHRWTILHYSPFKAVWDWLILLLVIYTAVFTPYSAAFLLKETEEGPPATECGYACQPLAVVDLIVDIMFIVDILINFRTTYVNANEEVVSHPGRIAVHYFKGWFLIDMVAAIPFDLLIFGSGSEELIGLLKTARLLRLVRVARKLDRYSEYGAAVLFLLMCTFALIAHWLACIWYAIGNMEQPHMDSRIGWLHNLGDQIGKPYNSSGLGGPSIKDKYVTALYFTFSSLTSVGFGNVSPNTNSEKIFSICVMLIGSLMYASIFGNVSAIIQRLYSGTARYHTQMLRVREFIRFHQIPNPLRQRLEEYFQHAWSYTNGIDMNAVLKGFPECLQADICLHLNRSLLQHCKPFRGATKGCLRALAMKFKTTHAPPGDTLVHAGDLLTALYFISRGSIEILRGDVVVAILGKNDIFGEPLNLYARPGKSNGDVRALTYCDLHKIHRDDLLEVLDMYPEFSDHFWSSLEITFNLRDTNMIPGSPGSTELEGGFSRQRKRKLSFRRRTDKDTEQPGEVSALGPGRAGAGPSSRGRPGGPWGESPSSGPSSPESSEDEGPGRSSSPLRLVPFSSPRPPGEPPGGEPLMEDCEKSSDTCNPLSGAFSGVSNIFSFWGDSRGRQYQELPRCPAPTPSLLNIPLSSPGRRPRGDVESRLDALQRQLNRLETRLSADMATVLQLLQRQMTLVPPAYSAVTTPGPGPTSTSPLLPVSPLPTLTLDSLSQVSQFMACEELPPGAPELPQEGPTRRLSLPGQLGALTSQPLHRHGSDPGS

Row | SMILES | hERG current change (%, negative = inhibition) at 10uM
1 | Cc1ccc(C)c(OC(=O)C2CSC3(C)CCC(=O)N23)c1C (stereo not drawn) | -7.46%
2 | COc1ccc(C(=O)NCC2CCCO2)cc1S(=O)(=O)N1CCCc2ccccc21 (stereo not drawn) | -14.3%
3 | CCOCCCNC(=S)Nc1ccc2nc(N3CCCC3)cc(C)c2c1 | -73.3%
4 | COc1c(C)cc(C(=O)C2CCCN(Cc3cccc(C)n3)C2)cc1C (stereo not drawn) | -48.7%
5 | Br.CN1CCN(CC(=O)c2cc(C(C)(C)C)c(O)c(C(C)(C)C)c2)CC1 | -13.3%
6 | COc1ccc(N2CCN(C(=O)c3ccccc3)CC2)c([N+](=O)[O-])c1 | -67.7%
7 | O=C(COc1ccc2ccc(=O)oc2c1)Nc1cccc(S(=O)(=O)N2CCCCC2)c1 | 0.0871%
8 | Cc1ccccc1OCC(=O)NCCNC(=O)c1ccccn1 | 6.12%
9 | O=C1C=C(c2ccc(C(=O)O)cc2)C[C@@H](c2ccc3c(c2)OCO3)C1 | 9.47%
10 | Cc1cc(C)c(S(=O)(=O)N2CCN(C(=O)C3COc4ccccc4O3)CC2)c(C)c1 (stereo not drawn) | -17%
11 | O=C(CCn1cccc1)Nc1cc(F)ccc1F | 23.3%
12 | CCOc1ccc(C2C(C(N)=O)=C(C)Nc3ncnn32)cc1OC (stereo not drawn) | 3.16%
13 | Cn1nnnc1Sc1ncnc2scc(-c3ccc[nH]3)c12 | -9.69%
14 | CN1C(=O)/C(=C/c2cn(CC(=O)NCc3ccco3)c3ccccc23)NC1=S | 15.1%
15 | CO/N=C/NC(=O)c1ccc([N+](=O)[O-])c(CS(=O)(=O)c2ccc(Cl)cc2)c1 | -12.5%
16 | COCCNC(=O)c1cc2c(=O)[nH]c3ccccc3c2s1 | 15.7%
17 | Cn1cnnc1SCC(=O)c1cc2ccccc2o1 | -2.67%
18 | Br.N=c1n(CC(=O)c2ccc([N+](=O)[O-])cc2)c2ccccc2n1Cc1ccc(Cl)cc1 | -14.3%
19 | COc1ccc(Nc2nnc(SCc3cc([N+](=O)[O-])cc4c3OCOC4)s2)cc1 | 8.43%
20 | CN(C)C(=O)c1nc2ccccc2s1 | 15.8%
21 | CCOC(=O)c1cnc(SCC(=O)Nc2cccc(OC)c2)nc1N | -10.5%
22 | CCOc1ccc(NC(=S)N2CCCN(Cc3cccc(Cl)c3)C2)cc1 | -17.6%

Row | SMILES | hERG current change (%, negative = inhibition) at 10uM
23 | O=C(NCc1nnnn1-c1ccc(Cl)cc1)c1ccc(Br)o1 | -22.2%
24 | Cc1cc(SCC(=O)N(C)CC(=O)Nc2ccc(F)cc2)nc2ccccc12 | -28.7%
25 | Cc1noc(C)c1COC(=O)c1ccc2ccccc2n1 | -11.9%
26 | COC(=O)CCc1c(C)c(C(=O)c2cccc(OC)c2OC)c2ccccn12 | -13.3%
27 | Cn1ncc(Cl)c1C(=O)NCc1ccc(Cl)cc1 | -13.3%
28 | CN1CCC(N(C)C(=O)CNC(=O)c2ccc(C(C)(C)C)cc2)CC1 | 22.6%
29 | CC(=O)c1ccc(N2CCN(C(=O)c3cc(C)on3)CC2)cc1 | -41.8%
30 | CCOc1ccc(N2CC(NS(=O)(=O)c3cccnc3)CC2=O)cc1 (stereo not drawn) | -9.94%
31 | O=C(O)C1=C[C@@H](c2ccccc2)C[C@@H](OCc2ccc(CO)cc2)O1 | 18.6%
32 | C#CCn1c(=NC(=O)c2ccco2)sc2cccc(Cl)c21 | 10.5%
33 | O=C(c1ccc(=O)oc1)N1CCC(C(O)(c2ccccc2)c2ccccc2)CC1 | -29.2%
34 | COc1ccc(OC)c(-n2c(-c3cc(-c4ccco4)[nH]n3)n[nH]c2=S)c1 | 1.18%
35 | NS(=O)(=O)c1ccc(NC(=O)CCC(=O)N2CCOCC2)cc1 | 13.7%
36 | COc1ccc(OC)c(CCNC(=O)C2CCN(c3ncnc4c3nc3n4CCCCC3)CC2)c1 | -0.169%
37 | COC(=O)C1=NNC2(C)C(=O)N(c3ccc(C)cc3)C(=O)C12 (stereo not drawn) | 17.7%
38 | O=C(COc1nsnc1N1CCOCC1)Nc1cccc(Cl)c1 | -15.9%
39 | COCCNC(=O)c1c[nH]c2ccc(S(=O)(=O)N(C)c3ccc(C)c(C)c3)cc2c1=O | -9.12%
40 | COc1ccc(NC2CCCN(C(=O)CCc3scnc3C)C2)cc1 (stereo not drawn) | 12.2%
41 | COC(=O)c1[nH]c2cc(OC)ccc2c1NC(=O)CN1CCN(c2cccc(C)c2)C(C)C1 (stereo not drawn) | -0.154%
42 | COc1ccc(OC)c(-c2cc(C3CCN(c4ncccc4[N+](=O)[O-])CC3)[nH]n2)c1 | -3.29%
43 | CCCCCCCCCOC1OC(CO)C(O)C(O)C1NC(C)=O (stereo not drawn) | 12.3%
44 | COCc1nnc(NC(=O)C2CCN(C(=O)c3ccco3)CC2)s1 | 27.5%

Row | SMILES | hERG current change (%, negative = inhibition) at 10uM
45 | Cc1nc2c3ccccc3nc(NNC(=O)CCC(=O)NCCC(C)C)n2n1 | -8.51%
46 | COc1cc(SC)ccc1C(=O)N1CCc2ccccc21 | 7.2%
47 | CCOc1ccc(NC(=S)N2CCN(C/C=C/c3ccccc3)CC2)cc1 | -38%
48 | CCN1C(=O)[C@H]2[C@H]3[C@H](O)[C@H](O)C/C(=N\O[C@H](C)c4cn([C@H](CO)Cc5ccccc5)nn4)[C@@H]3CC[C@H]2C1=O | -2.99%
49 | COc1ccc(C(=O)NCCc2ccccn2)cc1S(=O)(=O)Nc1ccc(Br)cc1 | -21.9%
50 | O=C(NC(=S)Nc1ccc(CN2CCOCC2)cc1)c1cc2ccccc2o1 | 11.7%
51 | CCOc1cc(/C=C2\N=C(SC(C)C(N)=O)N(c3ccc(OC(F)F)cc3)C2=O)ccc1O (stereo not drawn) | -18.6%
52 | COc1ccc(C(=O)N2CCC(C(N)=O)CC2)cc1S(=O)(=O)N1CCCC1 | 5.5%
53 | O=c1[nH]c(/C=C/c2ccccc2Cl)c([N+](=O)[O-])c(=O)[nH]1 | 7.06%
54 | Cc1ccc(CC(=O)Nc2cccc(C#N)c2)cc1 | 7.1%
55 | O=C1NC(=Nc2ccccc2Cl)S/C1=C\c1ccc(C(=O)O)cc1 | 12.4%
56 | CN1CCN(S(=O)(=O)c2ccc(N3CCN(c4ccccc4Cl)CC3)nc2)CC1 | 7.3%
57 | COCCNC(=S)N(Cc1cc2cc(C)ccc2n2nnnc12)C1CCCC1 | 12.6%
58 | Cc1ccc(NC(=O)CNS(=O)(=O)c2cccs2)cc1F | -9.47%
59 | O=C(NC(=S)Nc1ccccc1O)c1ccc(Cl)cc1Cl | 14.1%
60 | CCN(CC)S(=O)(=O)c1ccc2c(c1)N(CC(=O)Nc1ccc(NC(C)=O)cc1)C(=O)CO2 | 10%
61 | O=c1c2ccccc2ncn1CCCCOc1ccc(Br)cc1 | -19.1%
62 | CC(Oc1ccc(Cl)cc1)/C(N)=N/O.Cl (stereo not drawn) | -3.34%
63 | Cn1c(CCN2CCN(c3ccc(F)cc3)CC2)nc2cc(NC(=O)c3ccco3)ccc21 | -63.6%
64 | O=C(NCCc1nnc2ccc(NCCCN3CCOCC3)nn12)c1ccccc1 | 1.8%
65 | OC(c1cccs1)(c1cccs1)C1C[N+]2(CF)CCC1CC2.[Cl-] (stereo not drawn) | 4.96%
66 | CCOC(=O)N1CCN(C(=O)CSCc2ccc(C)cc2)CC1 | -4.51%

Row | SMILES | hERG current change (%, negative = inhibition) at 10uM
67 | O=C1CC(N(CCc2ccccc2)C(=S)Nc2cc(Cl)ccc2Cl)C(=O)N1c1c(Cl)cccc1Cl (stereo not drawn) | 8.12%
68 | O=C(NCCCN1CCCC1=O)c1cccc(S(=O)(=O)NCc2ccccc2)c1 | -5.36%
69 | Cn1cc(C(=O)N2CCN(c3ccccc3)CC2)c(=O)c2cc(S(=O)(=O)N3CCCC3)ccc21 | 9.41%
70 | COC(=O)CNC(=O)CSc1ccccn1 | -4.73%
71 | COc1ccc(C(=O)NCCN=C2NS(=O)(=O)c3ccccc32)cc1 | 13.5%
72 | Nc1nonc1-c1nc2ccccc2n1Cc1ccccc1 | -7.37%
73 | COc1cc(COCC(O)CN2CCN(Cc3ccccc3)CC2)cc(OC)c1OC.Cl (stereo not drawn) | -39.1%
74 | C=CCn1c(CNC(=O)c2ccco2)nnc1SCC(=O)c1ccc(F)cc1 | -15%
75 | O=C(NCCO)C(=O)c1c(-c2ccc(Cl)cc2)cc2ccccn12 | 10.8%
76 | O=C(c1ccc(Cl)cc1)N1CCN(c2ccc([N+](=O)[O-])c(NCc3cccnc3)c2)CC1 | -50.1%
77 | O=C(O)CCS(=O)(=O)Cc1cccc(Cl)c1 | -4.26%
78 | Fc1ccccc1NC(=S)NCc1ccccc1 | 2.89%
79 | CS(=O)(=O)N(Cc1ccc(C(=O)NN=C2CCCC2)cc1)c1ccccc1 | 8.63%
80 | O=S(=O)(Cc1cc(Cl)nc(-c2ccncc2)n1)c1ccccc1 | -10.7%
81 | CC(=O)N1CN(Cc2ccccn2)Cc2c1sc1c2CCCC1 | -17.6%
82 | Cc1cccc(C(=O)Nc2nnc(-c3ccncc3)o2)c1 | -23.6%
83 | COc1cccc2c(Nc3ccccc3C)cc(C)nc12.Cl | -44.5%
84 | Cc1cc(NS(=O)(=O)c2ccc(NC(=O)/C=C/c3ccccc3)cc2)no1 | 16.5%
85 | C/C(=N\NC(=O)CC1(C)OCCO1)c1cccs1 | 14.5%
86 | CC1(Cc2ccc3c(c2)OCO3)NC(=O)NC1=O (stereo not drawn) | 14.8%
87 | O=C(CN1C(=O)c2ccccc2C1=O)Nc1sc2c(c1C(=O)NCc1ccco1)CCCC2 | -4.71%
